Laboratory results taken from article PMC4336329 (PLoS ONE, 2015).
The whole screen tested about 310,000 compounds, of which about 14,000 (4.5%) showed an effect of 50% or more. Effects have a minus sign here. This is one part of the list.

Target: human ether-à-go-go-related gene (hERG) potassium channel (human, UniProt Q12809)
Test: primary screen, population patch clamp on CHO cells stably expressing hERG
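Further: peak tail current of the secondary pulse compared with the same well before compound.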

human ether-à-go-go-related gene (hERG) potassium channel, sequence (Q12809 whole entry, looked up): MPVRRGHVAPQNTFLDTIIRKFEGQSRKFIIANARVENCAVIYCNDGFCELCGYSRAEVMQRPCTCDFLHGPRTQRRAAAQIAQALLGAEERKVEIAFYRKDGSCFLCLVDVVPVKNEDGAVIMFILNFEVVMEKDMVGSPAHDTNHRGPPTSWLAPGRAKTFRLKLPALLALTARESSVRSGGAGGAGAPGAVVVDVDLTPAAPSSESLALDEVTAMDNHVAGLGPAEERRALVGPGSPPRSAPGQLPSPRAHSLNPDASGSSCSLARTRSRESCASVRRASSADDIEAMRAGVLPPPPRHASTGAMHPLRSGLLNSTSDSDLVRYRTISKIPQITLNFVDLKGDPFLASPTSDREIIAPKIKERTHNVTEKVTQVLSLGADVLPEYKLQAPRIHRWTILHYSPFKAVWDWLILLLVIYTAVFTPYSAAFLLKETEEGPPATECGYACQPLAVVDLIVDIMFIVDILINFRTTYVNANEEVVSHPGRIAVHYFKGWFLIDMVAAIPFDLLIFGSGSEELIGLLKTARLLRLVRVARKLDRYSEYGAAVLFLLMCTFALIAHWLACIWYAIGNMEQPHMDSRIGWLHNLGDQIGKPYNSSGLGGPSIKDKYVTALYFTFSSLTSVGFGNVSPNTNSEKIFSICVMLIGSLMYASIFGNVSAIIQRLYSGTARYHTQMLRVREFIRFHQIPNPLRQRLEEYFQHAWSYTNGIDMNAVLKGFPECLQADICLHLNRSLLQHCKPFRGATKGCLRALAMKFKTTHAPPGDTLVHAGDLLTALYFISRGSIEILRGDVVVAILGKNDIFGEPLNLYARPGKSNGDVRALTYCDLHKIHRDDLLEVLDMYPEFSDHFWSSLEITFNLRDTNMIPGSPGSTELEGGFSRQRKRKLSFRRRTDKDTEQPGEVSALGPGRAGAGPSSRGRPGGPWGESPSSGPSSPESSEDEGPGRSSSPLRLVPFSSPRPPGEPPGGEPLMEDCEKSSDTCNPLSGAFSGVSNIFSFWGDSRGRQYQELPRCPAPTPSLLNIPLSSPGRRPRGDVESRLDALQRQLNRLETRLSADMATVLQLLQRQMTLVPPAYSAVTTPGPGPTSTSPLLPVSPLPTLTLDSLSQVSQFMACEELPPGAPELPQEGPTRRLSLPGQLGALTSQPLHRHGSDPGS

SMILES | hERG current change (%, negative = inhibition) at 10uM [%]
O=[N+]([O-])c1ccc(Oc2ccc(S(=O)(=O)N3CCOCC3)cc2)cc1 | -63.4
CCc1ccc(Nc2ncc3c(n2)CC(C)(C)CC3=O)cc1 | -6.91
Cc1cc(C)c(NC(=S)N(Cc2cccnc2)Cc2ccco2)c(C)c1 | -4.95
Cc1cc2cc(C)c(SCC(=O)NCc3ccco3)nc2cc1C | 18.8
C=C1CCN(C(C)C(=O)OC)S(=O)(=O)c2ccccc21 (stereo not drawn) | 0.0558
Cn1nc(C(=O)NCC2CCCO2)c2ccccc2c1=O (stereo not drawn) | -3
S=C(NCC1CCCO1)NC1CC1 (stereo not drawn) | 18.5
Cc1cccn2c(CNCCSc3nccn3C)c(C(=O)N3CCCCC3)nc12 | 3.25
COc1cccc(C(=O)Nc2sc3c(c2C#N)CCN(C(C)=O)C3)c1 | 9.9
Cc1ccccc1C(C(=O)NCc1ccco1)N(CC1CCCO1)C(=O)Cn1nnc2ccccc21 (stereo not drawn) | 0.321
c1ccc(-n2nnnc2SCCCSc2nc3ccccc3s2)cc1 | 14.4
COc1ccccc1NC(=O)CCN1C(=O)/C(=C/c2cc(OC)c(OC)c(OC)c2)SC1=S | 13.8
COc1cc(OC)cc(C(=O)OCC(=O)Nc2ccc(N3CCCCC3)cc2)c1 | 0.0136
Cc1nc(S(=O)(=O)c2ccc(Cl)cc2)c(NCc2ccccc2)o1 | 17.4
Cc1cc(NC(=O)CSc2nnc(-c3ccoc3C)n2N)no1 | 19.7
COc1ccc(-c2csc(NC(=O)Cn3nc(C)cc3C)n2)cc1 | 12.9
CCOC(=O)c1ccc(NC(=O)CSc2ccc(-c3ccncc3)nn2)cc1 | 19.4
CCN(CC)C(=O)C(=O)N/N=C/c1cccc(Br)c1 | -8.07
Cc1cc(OCC(=O)NNC(=O)c2cccs2)ccc1Br | 7.9
O=C(O)c1cc([N+](=O)[O-])ccc1NCCCc1ccccc1 | 30
CN(C(=O)CN1C(=O)S/C(=C\c2ccccc2Cl)C1=O)C1CCS(=O)(=O)C1 (stereo not drawn) | 6.68
CC(C)CCNC(=O)C(c1ccco1)N(CCCO)C(=O)Cn1nnc(-c2ccc(F)cc2)n1 (stereo not drawn) | -20.2

SMILES | hERG current change (%, negative = inhibition) at 10uM [%]
CCCCC1CCC(C(=O)N(CC(C)C)c2c(N)n(CCCC)c(=O)[nH]c2=O)CC1 (stereo not drawn) | -3.04
CCCCOc1ccc(C(=S)N2CCC(C(N)=O)CC2)cc1 | 6.67
CCCCOc1ccc(-c2[nH]ncc2C=O)cc1 | 5
Cc1ccc(-n2c3c(cc(C(=O)NC4CCSC4=O)c2=O)C(=O)CCC3)cc1 (stereo not drawn) | -6.67
CCOC(=O)CSc1nc(CC)nc2ccccc12 | 4.53
O=C(NCCc1ccccc1)C1CCN(C(=O)N2CCOc3ccccc32)CC1 | -4.73
COC(=O)/C(C#N)=C/c1c(Oc2cccc(C)c2C)nc2ccccn2c1=O | -12.6
CCOc1ccccc1N1CCN(CC(O)COC2CCCc3ccccc32)CC1 (stereo not drawn) | -49.7
O=C(c1cc(-c2ccc3c(c2)OCO3)on1)N1CCN(c2ccccc2)CC1 | 2.3
COc1ccc(-n2nc(C(=O)NCC(=O)NCCC3=CCCCC3)c3ccccc3c2=O)cc1OC | 3.49
COc1ccc(S(=O)Cc2ccc(C(=O)N3CCN(c4cccc(C)c4C)CC3)o2)cc1 (stereo not drawn) | -23.8
O=C(c1ccccc1)N1CCN(c2ncnc3sc4c(c23)CCC4)CC1 | -56
Cc1ccc(OC(=O)CCC(=O)OCCCC(F)(F)C(F)(F)F)cc1 | 8.39
COc1ccc(CCNC(=O)C2=CCN(S(=O)(=O)c3ccc(F)cc3)CC2)cc1OC | -15.1
Cn1nc(C(C)(C)C)cc1NC(=O)Nc1ccc(F)cc1F | 5.93
Cc1c([C@@H]2C[C@H]3CN(Cc4cccc(Cl)c4)C(=O)[C@]34CCCN24)cnn1C | -45.5
Cc1ccc(CC(=O)NCC2CCCCC2)cc1 | 7.16
Cc1ccc2c(c1)c1nc3ccccc3nc1n2C | 21.3
Cc1ccc(-c2nc(CS(=O)CC(=O)NCCCN3CCN(Cc4ccccc4)CC3)c(C)o2)cc1 (stereo not drawn) | -38.2
COc1ccc(CCn2c(-c3cc([N+](=O)[O-])cc([N+](=O)[O-])c3)nc3nc4ccccc4nc32)cc1OC | -14.6
Cc1cccc(N2C(=O)C3CCCN3C2=S)c1 (stereo not drawn) | 11.2
O=C(CNC(=O)c1ccc(Br)o1)NCC1CCCCC1 | 3.39

SMILES | hERG current change (%, negative = inhibition) at 10uM [%]
Nc1nsc2ccccc12 | 14.3
O=P(c1ccccc1)(c1ccccc1)N(c1ccccc1)c1ccccc1 | 4.16
CC(C)Cn1c(N)c(C(=O)COC(=O)c2cnc(Cl)c(Cl)c2)c(=O)n(C)c1=O | -71.1
Cc1cc(Br)ccc1OCCCCNC(C)(C)C.O=C(O)C(=O)O | -53.9
N=c1c(C(=O)NCCc2ccccc2)cc2c(=O)n3ccccc3nc2n1Cc1ccco1 | -77.9
O=C(COC(=O)CCSc1ccc(Cl)cc1)NCCc1ccccc1 | 14.8
Cc1ccnc(NC(=O)CCCNC(=O)c2ccc(Cl)cc2)c1 | 5.45
CC1CCCN(C(=O)CN2C(=O)c3ccccc3S2(=O)=O)C1 (stereo not drawn) | 18.5
O=C(c1c[nH]c2ccc(S(=O)(=O)N3CCOCC3)cc2c1=O)N1CCC2(CC1)OCCO2 | 23.7
NS(=O)(=O)c1ccc(CCNC(=O)c2ccc[nH]c2=S)cc1 | -0.0831
COc1cc(/C=N/NC(=O)c2ccccc2O)ccc1OC(=O)CC1SC(=O)NC1=O (stereo not drawn) | 11.8
Cn1c(=O)oc2cc(S(=O)(=O)Nc3ccccc3F)ccc21 | 17.3
C=CCOc1ccccc1CNc1cccc(F)c1 | 14.2
COc1ccc(OC)c(NC(=O)Cc2cccs2)c1 | 20.7
Cc1ccc(S(=O)(=O)Nc2nc(C)c(C(=O)NNS(=O)(=O)c3cc(C)ccc3C)s2)cc1 | 15.2
COc1cc(OC)cc(C(=O)NC(C)c2cnn(-c3ccccc3C)c2C)c1 (stereo not drawn) | -1.48
O=C(O)c1cccc(NC2=C(N3CCOCC3)C(=O)c3ccccc3C2=O)c1 | 12.4
Cl.O=C(CCS(=O)(=O)c1ccccc1)N(CCCN1CCOCC1)c1nc2ccccc2s1 | -14.1
CCOC(=O)c1ccccc1NC(=O)CSc1nc2ccccc2o1 | 1.06
CC(=O)Nc1ccc(N2CCN(c3ccc(F)cc3)CC2)cc1 | 18.4
CS(=O)(=O)c1ccc(Cl)c(NC(=O)CSc2nc3ccccc3c(=O)n2CCCN2CCOCC2)c1 | -47.7
CCOc1ccc(OCC(=O)Nc2ccc(OC)cc2)cc1 | 22.7

SMILES | hERG current change (%, negative = inhibition) at 10uM [%]
CNC(=S)N(CCc1c(C)[nH]c2ccccc12)Cc1ccco1 | 0.71
COc1ccccc1CNC(=O)CCn1c(=O)oc2ccccc21 | 0.0851
COc1ccc2c(c1)[nH]c1c(=O)n(/N=C/c3ccc(OC)c(CN4CCCC4)c3)cnc12 | -71.1
Oc1ccc(/C=N/NC2=NCCCCC2)c(O)c1 | -19.8
Cc1ccc(C)n1-c1cccc(C(=O)Nc2ccccc2)c1 | 2.57
CC(=O)Nc1ccc(S(=O)(=O)N2CC(=O)NC(=O)C2)cc1 | 29.9
Cc1cc(C(=O)OCC(=O)Nc2cccnc2Cl)c2ccccc2n1 | 6.15
CCc1nnc(NC(=O)CSc2nnc(-c3c[nH]c4ccccc34)n2C)s1 | 5.82
C/C=C/C1=CC(=O)C[C@H](c2ccc(Cl)cc2)C1 | -63.9
C=CCOC(=O)C1=C(C)Nc2nnnn2C1c1cccc(OC)c1OC (stereo not drawn) | -4.72
Cc1ccc(N(CC(O)Cn2c3ccccc3c3ccccc32)S(C)(=O)=O)cc1 (stereo not drawn) | 9.82
CCOC(=O)N1CCN(c2nc3ccccc3n3cnnc23)CC1 | 1.2
CC(C)CNC(=O)C(=O)Nc1cc2c3c(c1)C(C)C(=O)N3CCC2 (stereo not drawn) | 4.51
Cc1cc(C)c2nncn2n1 | 9.04
Cc1cccc(CS(=O)(=O)Cc2ccc(C(=O)NCCc3ccccc3)o2)c1 | -38.8
Cc1ccc(S(=O)(=O)N2CCCCC2)cc1C(=O)N(CCc1ccccc1)Cc1ccccc1 | 10.3
Cc1ccc(S(=O)(=O)N2C(=O)CCC2C(=O)N2CCCCC2)cc1 (stereo not drawn) | 9.95
Cc1ccc(CN2C(=O)C(Cc3ccccc3)Nc3ncnc(N4CCCCC4)c32)cc1.O=C(O)C(F)(F)F (stereo not drawn) | -12
CN1CCC(N(C)C(=O)/C=C/c2cn(-c3ccccc3)nc2-c2cccs2)CC1.Cl | -22.3
CCC(C)(C)NC(=O)CN(C(=O)CCC(=O)Nc1cc(C)ccn1)c1ccc2c(c1)OCCO2 | 22.7
COc1cc2nc(SCC(=O)NCc3ccco3)n(Cc3ccc(Cl)cc3)c(=O)c2cc1OC | -3.17
